Screen size: about 110,000 compounds; about 230 (0.21%) showed an effect of 50% or more. This is one part of the list.
target: DPAP1 (Plasmodium falciparum, UniProt Q8IIJ9); assay: primary screen, percent inhibition; read by cleavage of a fluorogenic dipeptide substrate; higher = more effect of the substance; parameters: species or system P. falciparum D10 trophozoite lysates; single well
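Also: 30 min substrate incubation versus DMSO and 10 µM JCP410 controls.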

Sequence of DPAP1 (Q8IIJ9 whole entry, looked up): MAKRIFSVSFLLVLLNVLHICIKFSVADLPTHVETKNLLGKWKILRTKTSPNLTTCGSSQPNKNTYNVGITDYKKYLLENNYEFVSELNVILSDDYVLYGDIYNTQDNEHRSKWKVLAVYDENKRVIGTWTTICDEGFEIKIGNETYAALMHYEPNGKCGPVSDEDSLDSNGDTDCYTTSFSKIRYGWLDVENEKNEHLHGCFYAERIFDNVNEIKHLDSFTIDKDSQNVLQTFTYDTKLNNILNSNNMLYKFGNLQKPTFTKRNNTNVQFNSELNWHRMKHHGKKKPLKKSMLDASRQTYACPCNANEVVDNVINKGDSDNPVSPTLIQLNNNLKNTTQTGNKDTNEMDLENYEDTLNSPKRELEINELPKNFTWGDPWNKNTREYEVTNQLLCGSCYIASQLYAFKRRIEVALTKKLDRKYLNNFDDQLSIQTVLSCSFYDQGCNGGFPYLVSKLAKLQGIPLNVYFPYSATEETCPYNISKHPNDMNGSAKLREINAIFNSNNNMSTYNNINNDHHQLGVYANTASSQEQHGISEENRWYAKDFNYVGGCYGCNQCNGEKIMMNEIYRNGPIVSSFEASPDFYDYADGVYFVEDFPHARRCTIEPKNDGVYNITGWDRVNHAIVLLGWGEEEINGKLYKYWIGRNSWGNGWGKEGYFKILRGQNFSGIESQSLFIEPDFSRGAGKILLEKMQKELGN

| Compound | % Inhibition @ 10 uM [%] |
| --- | --- |
| Cc1nn(-c2ccc(F)cc2)c(-n2cccc2)c1C(=O)NC(C)c1ccccc1 (centres unmarked) | -6.11 |
| CN(C(=O)c1ccc(Cl)cc1)c1ccccc1 | -8.01 |
| O=C(c1cnc(N2CCN(c3ncccn3)CC2)c2ccccc12)N1CCN(c2ccccn2)CC1 | 5.88 |
| CC(C)(C)c1ccc(-c2nnc(SCC(=O)NCC3CCCO3)n2-c2ccccc2)cc1 (centres unmarked) | -4.48 |
| OC(COc1ccc(Cl)cc1)CN1CCCCC1 (centres unmarked) | 3.44 |
| CC(C)(C)C(=O)Nc1ccc(C(=O)Nc2cccnc2)cc1 | -2.75 |
| CCCCN(C(=S)SC)C1CCS(=O)(=O)C1 (centres unmarked) | 3.7 |
| CN(C)CCCN(CCCN(C)C)Cc1cccnc1 | 1.62 |
| COc1ccc(-c2oc3ncnc(NCCN4CCOCC4)c3c2-c2ccc(OC)cc2)cc1 | -1.05 |
| COc1ccc(C2=NOC(CN3C(=O)c4ccccc4S3(=O)=O)C2)cc1 (centres unmarked) | 0.221 |
| N#CC1=C(N)SC(N)=C(C#N)C1c1ccc(Cl)c(Cl)c1 | 40.5 |
| CC(=O)N1C(NCc2ccccc2)CC(C)N1c1ccccc1 (centres unmarked) | 1.1 |
| CC(C)C[C@H](NC(=O)c1cc(C(C)(C)C)c(O)c(C(C)(C)C)c1)C(=O)NCC#N | -12.7 |
| Cc1ccc(N/C=C(\C#N)C(=O)NC(=O)Cc2ccccc2)cc1 | 0.687 |
| CCN1CCN(c2nc(-c3ccccc3O)nc3ccccc23)CC1 | 0.528 |
| CC1CN(c2ccccc2Br)NC1=O (centres unmarked) | -0.0217 |
| CCOc1nc(NC(=O)NC(=O)c2cccc(F)c2)nc(-c2ccccc2)n1 | 3.53 |
| CNS(=O)(=O)c1cc(-c2nnc(O)c3ccccc23)ccc1C | -5.28 |
| O=C(CSc1nc2ccccc2s1)Nc1ccc(Br)cn1 | 4.33 |
| CN1C2CCC1CC(=NOC(=O)c1ccc(F)cc1)C2 | -3.21 |
| COc1ccc(CC(=O)NC(c2ccccc2)c2ccccc2)cc1 | 0.135 |
| O=C(c1ccccc1)c1ccc2nc(N3CCN(c4ccccn4)CC3)c3nncn3c2c1 | -7.91 |
| CC1CC(C)CN(CCCNC(=O)Cn2ncc3ccc(Cl)cc32)C1 (centres unmarked) | -2.88 |
| c1ccc(-c2nnn3c2nc(NCc2ccc4c(c2)OCO4)c2ccccc23)cc1 | -2.92 |
| Cc1cc(Br)ccc1NC(=O)C1CC(=O)N(c2ccc(F)cc2)C1 (centres unmarked) | -1.92 |

| Compound | % Inhibition @ 10 uM [%] |
| --- | --- |
| O=[N+]([O-])c1cccc(CN2CCN(c3ccc(Cl)cc3)CC2)c1 | -0.0404 |
| CCC1CCCCN1C(=O)c1ccccc1NC(=O)c1ccco1 (centres unmarked) | -3.09 |
| N=c1n(CC(=O)O)c2ccccc2n1Cc1ccccc1 | 0.992 |
| C=CCN(Cc1ccccc1F)C(=O)Nc1cccc(Cl)c1 | -7.99 |
| O=C(COc1ccc2ccccc2c1Br)N1CCCCC1 | -2.8 |
| Cc1cc(C)c2c(N)c(C(=O)Nc3ccc(F)c(Cl)c3)sc2n1 | 4.08 |
| COc1cccc(/C=c2\sc3nc(-c4ccccc4C)nn3c2=O)c1 | -3.21 |
| COc1ccc(Cl)cc1-c1nc(-c2cccc(C)c2)no1 | -10 |
| COc1ccc(-c2noc(NCCc3ccc(S(N)(=O)=O)cc3)n2)cc1OC | 9.25 |
| CCc1ccc(CNC(=O)C2CCN(c3ncnc4c3nc3n4CCCCC3)CC2)cc1 | 3.27 |
| CCOc1cc(C2c3c(oc4ccccc4c3=O)C(=O)N2Cc2ccccc2)ccc1O (centres unmarked) | 5.3 |
| COc1ccc2[nH]c3c(=O)n(CCC(=O)NCCC(C)C)c(=S)[nH]c3c2c1 | 1.15 |
| Cc1ccc(-c2[nH]nc3c2C(c2ccccc2F)C(C#N)=C(N)O3)cc1 (centres unmarked) | -4.65 |
| CCN(CC)C(=O)C(C)N(C#N)c1nc(N(C)C)nc(N(C)C)n1 (centres unmarked) | 0.746 |
| CCOc1ccc(CCNCc2ccc(C(=O)O)s2)cc1OCC | -7.93 |
| COc1cc(OC)c(/C=C2/NC(=O)NC2=O)cc1Br | 7.76 |
| CCCCOc1ccc(CN2CCCCC2CC)cc1 (centres unmarked) | -4.14 |
| Cc1ccc(C=C2C(=O)OC(C)(C)OC2=O)o1 | -7.23 |
| CC(CNCc1c(C(=O)O)n(Cc2ccccc2F)c2ccccc12)c1ccccc1 (centres unmarked) | -1.65 |
| CCOC(=O)CSc1nc(O)cc(OC)n1 | -0.712 |
| COc1cc2nc(NCc3ccc(F)cc3)n3nc(-c4ccccc4)nc3c2cc1OC | -0.692 |
| Cc1ccc(C)c(S(=O)(=O)NCc2ccc(C(=O)N3CC(C)OC(C)C3)cc2)c1 (centres unmarked) | -3.08 |
| COc1cccc(C2=Nn3c(nnc3C(F)(F)F)SC2)c1 | -6.25 |
| C=CCn1c(SCC(=O)NCCN2CCOCC2)nc2sc3c(c2c1=O)CCCC3 | 1.02 |
| O=S(=O)(NCCC1=CCCCC1)c1ccc(-c2ccc(O)nn2)s1 | 0.182 |

Source: paper PMC6919601, “Identification of Plasmodium dipeptidyl aminopeptidase allosteric inhibitors by high throughput screening” (PLoS ONE, 2019)
